Reference: PubChem BioAssay AID686978 (National Center for Advancing Translational Sciences (NCATS), 2013)
Screen size: about 420,000 compounds; about 64,000 (15%) were called active. The shares of active, inactive and inconclusive entries below differ from those in the screen. Calls come from the whole dose curve; as a rule, active = well fitted inhibition curve with a large enough effect; inconclusive = small, poorly fitted or top-dose-only effect; inactive = flat fitted curve, though single readings scatter. Potencies of inconclusive entries are left out as doubtful fits.

assay: qHTS for Inhibitors of human tyrosyl-DNA phosphodiesterase 1 (TDP1): qHTS in cells in absence of CPT; settings: DT40 Tdp1-/- hTDP1 cells, no CPT, ATP luminescence, 48 h; series mostly up to 46.2 µM; note: nearly all actives have a fitted effect of over 55% in size
Outline: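 DT40 Tdp1-/-;hTDP1 cells, no CPT (DMSO vehicle only), 400 cells/well; compounds pin-transferred; ≥48 hr, 37 °C; CellTiter-Glo 30 min RT dark, luminescence read.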
Potency is the fitted concentration of half-maximal effect; tags give direction and shape of the fitted curve.

SMILES | Potency
O=C(CSc1nc(C2CCCCC2)nc2ccccc12)NCc1ccc2c(c1)OCO2 | inconclusive [inhibitor, single point]
O=C(COc1ccccc1Cl)Nc1nc2c(s1)CCCC2 | active: 10.3 µM
O=[N+]([O-])c1ccc(CN2CCN(Cc3c[nH]c4ccccc34)CC2)cc1 | inconclusive [inhibitor, single point]
NC(=O)Cn1cc(/C=N\NS(=O)(=O)c2ccccc2)c2ccccc21 | inactive
N#Cc1ccccc1Cn1c(=O)n(C2CCCC2)c(=O)c2ccccc21 | active: 18.4 µM
CCOc1ccc(N=C(/C(C(=O)C(=O)N2CCOCC2)=C(/O)c2ccccc2)c2ccccc2)cc1 | inactive
CN(Cc1cccc(F)c1)C(=O)c1ccccc1Sc1ccccc1C#N | inconclusive [inhibitor, single point]
O=c1c2cn[nH]c2nc(SCc2ccc3c(c2)OCCO3)n1-c1ccccc1 | inconclusive [inhibitor, partial curve]
CCc1ccc(C(=O)CCC(=O)Nc2ccc(OC)c(S(=O)(=O)N3CCCCC3)c2)cc1 | inactive
COc1ccc(-n2nc(C(=O)NCCc3ccc(Cl)cc3)c3c4ccccc4n(C)c3c2=O)cc1Cl | active: 13 µM
COCCNC(=O)C1CCN(S(=O)(=O)c2c(C)noc2/C=C/c2cccs2)CC1 | inactive
O=C(Cn1c(=O)n(Cc2ccco2)c(=O)c2ccc(C(=O)NC3CCCC3)cc21)Nc1ccc(F)cc1 | inactive
Cc1ccc(C)c(C(=O)CSc2nc3ccccc3c(=O)[nH]2)c1 | inconclusive [inhibitor, full curve]
Cn1c(=O)c(C(=O)NCCc2ccc(Cl)cc2)c(O)c2ccccc21 | inconclusive [inhibitor, single point]
Cc1ccc(C(=O)N/C(=C/c2ccccc2)C(=O)NCC2CCCO2)cc1 (stereo not given) | inactive
COc1ccc2cc(C3=CC(=O)CCC3)ccc2c1 | inconclusive [inhibitor, single point]
COc1ccccc1N1CCN(Cc2nc(N)nc(Nc3ccccc3)n2)CC1 | inconclusive [inhibitor, partial curve, poor fit]
O=C(c1ccccc1Cl)N(Cc1ccc(Br)cc1)N1C(=O)CCC1=O | inactive
Cc1ccc(-c2cc(C(F)F)nc(N3CCC(C)CC3)n2)cc1 | inactive
Cc1ccc(OCc2nnc(SCC(=O)Nc3nccs3)n2-c2ccccc2)cc1C | inconclusive [inhibitor, partial curve, poor fit]
